Measurements: PubChem BioAssay (NCI)
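Exposure lasted 48 hours, with cells grown in 96-well plates and compounds tested at five concentrations. Abbreviation: GI50, concentration required for 50% inhibition of growth. TGI: total growth inhibition.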

Tested on: NCI-H322M lung
Assay: DTP human tumour cell line panel, 48 h

Compound	TGI	GI50
COc1cc(OC)c2nc(C)c3c(c2c1)OCC3	> 100 µM	–
Cc1ccc(S(=O)(=O)OI(O)CC(F)(F)F)cc1	> 100 µM	–
COc1ccc(OC2OC(CO)C(O)C(O)C2O)cc1 (stereo not given)	> 100 µM	–
O=C1/C(=C/c2ccc(OC(=O)c3ccc(Cl)cc3)cc2)CCC/C1=C\c1ccc(OC(=O)c2ccc(Cl)cc2)cc1	> 100 µM	–
CCOC(=O)C1=C(c2ccccc2)NC(c2ccccc2)=C(C(=O)OCC)c2c1c(=O)cc[nH]c2=O	> 100 µM	–
N#Cc1nc(-c2ccc(-c3nc(C#N)c(N)o3)cc2)oc1N	> 10 µM	–
CNC(C)[C@H]1CCC2C3CCC4C[C@@H](N(C)C(=O)c5ccccc5)CC[C@]4(C)C3CC[C@@]21C (stereo not given in full)	7.91 µM	1.84 µM
COC1C(O)CC(OC2CC(OC3CC(O[C@@H]4C(=O)c5c(cc6cc(OC7CC(OC8CC(O)C(O)C(C)O8)C(O)C(C)O7)c(C)c(O)c6c5O)C[C@H]4[C@H](OC)C(=O)[C@@H](O)[C@@H](C)O)OC(C)C3O)OC(C)C2O)OC1C (stereo not given in full)	10.5 µM	–
CCOC(=O)C(O)Cc1cnc2ccccc2n1 (stereo not given)	> 100 µM	–
